Measurements as given in FireProtDB (doi:10.1016/j.jmb.2006.07.065).

Conditions: Escherichia coli (strain K12), pH 7, Hepes 5 mM, transition: 2, reversible: no

## Thioredoxin 1 wild type (letters omitted)
25 °C, Urea, fluorescence
  denaturant m value: 1.28 kcal/mol/M
  denaturant midpoint (higher = more stable): 6.92 M
Thermal, DSC
  Tm: 89 °C
  heat capacity change of unfolding: 1.39 kcal/mol/K
  unfolding enthalpy (calorimetric): 103 kcal/mol
